Out of some 310,000 compounds screened, about 14,000 (4.5%) showed an effect of 50% or more. Effects have a minus sign here. This is one part of the list.
The compounds below were run against human ether-à-go-go-related gene (hERG) potassium channel (human, UniProt Q12809) (assay: primary screen, population patch clamp on CHO cells stably expressing hERG).
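Note: peak tail current of the secondary pulse compared with the same well before compound.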

Chain of human ether-à-go-go-related gene (hERG) potassium channel (Q12809 whole entry, looked up): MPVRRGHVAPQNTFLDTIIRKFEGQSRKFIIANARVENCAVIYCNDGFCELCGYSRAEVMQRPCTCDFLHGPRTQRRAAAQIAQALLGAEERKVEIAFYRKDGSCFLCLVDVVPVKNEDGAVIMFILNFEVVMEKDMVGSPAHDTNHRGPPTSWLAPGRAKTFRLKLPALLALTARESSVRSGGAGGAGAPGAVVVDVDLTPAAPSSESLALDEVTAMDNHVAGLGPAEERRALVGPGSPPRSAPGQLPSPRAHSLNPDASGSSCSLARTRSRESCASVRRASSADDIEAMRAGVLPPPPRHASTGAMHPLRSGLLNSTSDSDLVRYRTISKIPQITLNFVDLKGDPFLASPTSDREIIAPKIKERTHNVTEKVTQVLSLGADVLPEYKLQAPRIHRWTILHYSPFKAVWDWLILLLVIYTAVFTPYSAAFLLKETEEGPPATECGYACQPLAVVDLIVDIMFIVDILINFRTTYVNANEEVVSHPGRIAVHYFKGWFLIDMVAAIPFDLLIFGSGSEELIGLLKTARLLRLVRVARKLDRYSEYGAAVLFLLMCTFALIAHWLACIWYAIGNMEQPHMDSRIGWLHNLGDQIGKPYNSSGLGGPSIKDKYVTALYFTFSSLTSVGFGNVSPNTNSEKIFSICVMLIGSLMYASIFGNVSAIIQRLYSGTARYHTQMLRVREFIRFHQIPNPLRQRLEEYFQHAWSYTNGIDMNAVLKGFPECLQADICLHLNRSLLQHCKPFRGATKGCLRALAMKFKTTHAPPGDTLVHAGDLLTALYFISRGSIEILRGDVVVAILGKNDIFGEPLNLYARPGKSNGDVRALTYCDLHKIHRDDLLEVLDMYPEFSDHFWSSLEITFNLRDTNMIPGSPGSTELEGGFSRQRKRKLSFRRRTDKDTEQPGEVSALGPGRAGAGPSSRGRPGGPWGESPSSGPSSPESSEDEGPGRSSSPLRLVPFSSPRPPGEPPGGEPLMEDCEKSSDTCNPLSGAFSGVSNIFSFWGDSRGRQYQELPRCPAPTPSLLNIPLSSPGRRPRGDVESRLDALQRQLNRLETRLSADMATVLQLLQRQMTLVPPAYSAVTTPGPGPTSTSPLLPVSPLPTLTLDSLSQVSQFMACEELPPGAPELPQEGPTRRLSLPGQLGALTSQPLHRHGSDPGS

First: COC(=O)CC1SC(=O)NC1=Nc1ccc(O)cc1 (centres unmarked)
Second: Cc1ccc(C(=O)CC2(O)C(=O)Nc3ccccc32)s1 (centres unmarked)
The “hERG current change (%, negative = inhibition) at 10uM” value of the first is lower: 9.16% for the first, 30.3% for the second.

First: CCOC(=O)CSc1nc2ccccc2n1CC(=O)N(C(C)C)C(C)C
Second: CCn1c(SCC(=O)Nc2cccc(C(C)=O)c2)nnc1C(C)C
The “hERG current change (%, negative = inhibition) at 10uM” value of the first is lower: -2.13% for the first, 3.82% for the second.

Going from CC1=NNC(=O)C1CCC(=O)N/N=C/C(Br)=C/c1ccccc1 (centres unmarked) to O=C(Cc1ccccc1)NCC(=O)N/N=C/c1ccc(Cl)cc1, the “hERG current change (%, negative = inhibition) at 10uM” value falls from 1.72% to -20%.

First: COCCn1c(N)c(Sc2ccccc2[N+](=O)[O-])c(=O)[nH]c1=O
Second: Cc1nn(C)c(Sc2ccccc2N)c1[N+](=O)[O-]
The “hERG current change (%, negative = inhibition) at 10uM” value of the first is lower: -0.344% for the first, 10.3% for the second.

First: CCOCCCNC(=O)c1cn(CC)c2ccc(S(=O)(=O)N3CCCC3)cc2c1=O
Second: CCn1c(=O)n(CC)c2cc(N3CCCC3)c(NC(=O)c3ccccc3)cc21
The “hERG current change (%, negative = inhibition) at 10uM” value of the first is lower: -6.08% for the first, 6.71% for the second.

Compared with CC(=O)N1CCOc2ccc(S(=O)(=O)N(C)c3cccc(C)c3)cc21, Cc1cccc(N2C(=O)CC(N(O)c3ccccc3)C2=O)c1 (centres unmarked) is higher in “hERG current change (%, negative = inhibition) at 10uM” value: -16.7% for the first, 9.2% for the second.

Compared with COc1ccc(OC)c(-n2c(O)c(C=Nc3c(C)n(C)n(-c4ccccc4)c3=O)c(=O)[nH]c2=S)c1, Cc1c(NC(=O)C(C)OC(=O)Cc2ccccc2)c(=O)n(-c2ccccc2)n1C (centres unmarked) is lower in “hERG current change (%, negative = inhibition) at 10uM” value: 17.5% for the first, 9.55% for the second.

First: COCCn1c(C)cc(C2=NNC(=Nc3ccc(Cl)cc3Cl)SC2)c1C
Second: CC1=CC2=NC(=O)/C(=C\c3cccn3CCOc3cc(C)cc(C)c3)C(=N)N2O1
The “hERG current change (%, negative = inhibition) at 10uM” value of the first is higher: 7.57% for the first, -12.2% for the second.

First: COc1ccccc1N(CC(=O)NC(C)(C)C)C(=O)c1ccc(Cl)nc1
Second: CCN(CC(=O)Nc1cccc(OC)c1)C(=O)c1ccc(C)s1
The “hERG current change (%, negative = inhibition) at 10uM” value of the first is higher: 8.32% for the first, -2.47% for the second.

Going from O=C(CS(=O)(=O)Cc1ccccc1)N1CCN(C(=O)c2ccco2)CC1 to O=C(c1ccc(NC2=NC3CS(=O)(=O)CC3S2)cc1)N1CCN(C(=O)c2ccco2)CC1 (centres unmarked), the “hERG current change (%, negative = inhibition) at 10uM” value rises from -30.7% to 7.17%.

Going from CSCCC(NC(=O)COc1ccccc1)C(=O)OCC(=O)c1ccccc1 (centres unmarked) to Cc1c(CCOC(=O)c2ccccc2)sc[n+]1Cc1ccccc1.[Cl-], the “hERG current change (%, negative = inhibition) at 10uM” value falls from 4.14% to -32.7%.

First: O=C(COC(=O)Cc1ccccc1[N+](=O)[O-])NC1CCCC1
Second: COc1cccc(-n2c(SCC(=O)NC3CCCCC3)nc3n[nH]c(C)c3c2=N)c1
The “hERG current change (%, negative = inhibition) at 10uM” value of the first is higher: -2.09% for the first, -4.43% for the second.

Going from CCn1cc(CN2CCC(n3nccc3NC(=O)Cc3ccccc3)CC2)cn1 to O=C(NCCc1ccccc1)C1CCCN(C(=O)Nc2ccc(F)cc2)C1 (centres unmarked), the “hERG current change (%, negative = inhibition) at 10uM” value falls from 7.27% to -11.9%.

Compared with CCOCCCNCC(O)c1ccccc1.O=C(O)C(=O)O (centres unmarked), C/C(CC(=O)Nc1ccccn1)=N\NC(=O)c1ccccc1O is higher in “hERG current change (%, negative = inhibition) at 10uM” value: 3.55% for the first, 6.73% for the second.

First: O=C(O)C(=O)O.O=C(c1ccc(F)cc1)N1CCN(C2CCCCC2)CC1
Second: CCC(=O)c1ccc(OCC(=O)Nc2ccc(N3CCCCC3)cc2)cc1
The “hERG current change (%, negative = inhibition) at 10uM” value of the first is lower: -62.1% for the first, 9.23% for the second.

Going from O=C(Nc1ccc2c(c1)OCCO2)C1CCN(c2ncccn2)CC1 to Cc1cc(C(=O)N2CCN(c3ncccn3)CC2)cs1, the “hERG current change (%, negative = inhibition) at 10uM” value falls from 26.5% to -15.6%.

First: Cc1c(CC(=O)O)c(=O)oc2cc3oc4c(c3cc12)CCCC4
Second: Cc1cc(OCC(=O)NC(Cc2ccc(Cl)cc2)C(=O)O)c2c3c(c(=O)oc2c1)CCCC3 (centres unmarked)
The “hERG current change (%, negative = inhibition) at 10uM” value of the first is lower: 6.56% for the first, 12.6% for the second.

First: O=C(NCCc1ccccc1)/C(=C\c1ccc([N+](=O)[O-])cc1)NC(=O)c1ccccc1
Second: O=C(NCc1ccccc1)C(c1ccc(F)cc1)N(Cc1ccco1)C(=O)c1ccccn1 (centres unmarked)
The “hERG current change (%, negative = inhibition) at 10uM” value of the first is higher: -14.6% for the first, -24.4% for the second.

Compared with COc1ccccc1/C=C/C(=O)NCC(=O)N=Nc1c(O)[nH]c2ccccc12, O=C(Nn1cc(C(=O)Nc2ccccc2F)c2ccccc2c1=O)c1cnccn1 is lower in “hERG current change (%, negative = inhibition) at 10uM” value: 1.93% for the first, 1.52% for the second.

First: CCOc1ccc(NS(=O)(=O)c2ccc(NS(=O)(=O)c3cccs3)cc2)cc1
Second: O=S(=O)(Nc1ccc(-c2ccc3nncn3n2)cc1)c1cccs1
The “hERG current change (%, negative = inhibition) at 10uM” value of the first is lower: 5.59% for the first, 15.4% for the second.

First: COc1nnc(-c2ccc(C)c(S(=O)(=O)N(C)C)c2)c2ccccc12
Second: Cn1nc(-c2ccc(C(=O)Nc3cccnc3)cc2)c2ccccc2c1=O
The “hERG current change (%, negative = inhibition) at 10uM” value of the first is lower: -77.6% for the first, -9.84% for the second.

First: NS(=O)(=O)c1cccc(NS(=O)(=O)c2ccc3ccccc3c2)c1
Second: O=S(=O)(Nc1cccc(-c2ccc3nncn3n2)c1)c1ccccc1F
The “hERG current change (%, negative = inhibition) at 10uM” value of the first is higher: 8.67% for the first, -2.04% for the second.

Going from C/C(=C(\C#N)C(=O)NC1CCCCC1)N(C)C to Cc1cc(C)c(C(=O)NCC2CCCO2)c(C)c1C(=O)NCC1CCCO1 (centres unmarked), the “hERG current change (%, negative = inhibition) at 10uM” value rises from 10.5% to 20%.

Compared with CCOc1ccc(C(=O)OC2CCCN(C)C2)cc1.Cl (centres unmarked), CC1CCC(C(C)C)C(OC(=O)C2=C3c4ccccc4S(=O)(=O)N3CC2)C1 (centres unmarked) is higher in “hERG current change (%, negative = inhibition) at 10uM” value: -18.1% for the first, 12.3% for the second.

Going from COC(=O)c1sc(NC(=O)CSc2nnnn2C)nc1C to Cn1cccc1C(=O)NC(=O)CSc1nnc(C2CC2)n1-c1ccccc1, the “hERG current change (%, negative = inhibition) at 10uM” value falls from 3.51% to -2.78%.

Going from CCOC(=O)C1CCN(C(=O)CSC2=NCCS2)CC1 to CCn1c(SCC(=O)N2CCC(C)CC2)nc2c(c1=O)SC(C)C2 (centres unmarked), the “hERG current change (%, negative = inhibition) at 10uM” value falls from 23.3% to -17.6%.

Compared with Cc1ccc2c(c1)C(=O)C(=O)N2CC(=O)OC(C)C, CC1=CC(C)(C)Nc2ccc(C)cc21 is lower in “hERG current change (%, negative = inhibition) at 10uM” value: 7.69% for the first, -58.1% for the second.

First: CCOCc1c(C(=O)N2CCN(Cc3ccc(Br)s3)CC2)oc2ccccc12
Second: CCOc1ccccc1CN1CCN(Cc2ccc3cc(F)ccc3n2)CC1CCO (centres unmarked)
The “hERG current change (%, negative = inhibition) at 10uM” value of the first is higher: -30.9% for the first, -65.7% for the second.

Going from Cc1nn(-c2ccccc2)c(N)c1N=Nc1ccc(Cl)cc1 to CC(Cc1ccccc1)/[N+]([O-])=C\c1ccc(C(F)(F)F)cc1 (centres unmarked), the “hERG current change (%, negative = inhibition) at 10uM” value falls from 8.47% to -12.6%.

Going from COc1ccc(N2CCN(C(=O)[C@@H](NC(=O)c3cc(OC)cc(OC)c3)C(C)C)CC2)cc1 to COc1ccc(-c2nc3ccccc3c(=O)n2-c2ccc(OC)cc2)cc1, the “hERG current change (%, negative = inhibition) at 10uM” value falls from 7.78% to -4.5%.

Going from O=C(CCNS(=O)(=O)c1ccccc1)NCCSc1ccc(Br)cc1 to CCN(CC(=O)NCc1ccncc1)S(=O)(=O)c1ccccc1, the “hERG current change (%, negative = inhibition) at 10uM” value rises from -0.985% to 5.51%.

Compared with COc1ccc(CC(=O)N/N=C(\C)CC(=O)NCc2ccco2)cc1OC, O=C(CSc1nc2c(sc3ccccc32)c(=O)n1-c1ccccc1)NCc1ccco1 is lower in “hERG current change (%, negative = inhibition) at 10uM” value: 15.3% for the first, -0.123% for the second.

Compared with CC(=O)NCc1cn2c(C)csc2n1, Cc1cccc(Nc2nnc(SCC(=O)NCc3cccs3)s2)c1C is lower in “hERG current change (%, negative = inhibition) at 10uM” value: -0.0891% for the first, -26.2% for the second.

First: CCC(=Nc1ccc(OC)cc1OC)c1c(O)n(C)c(=O)n(C)c1=O
Second: COC(=O)Cc1[nH]nc2c1C(c1ccc(O)c(OC)c1)C(C#N)=C(N)O2 (centres unmarked)
The “hERG current change (%, negative = inhibition) at 10uM” value of the first is lower: -11.8% for the first, 6.72% for the second.

Compared with Cc1ccc(S(=O)(=O)N2CCC(C(=O)Nc3ccncc3)CC2)cc1, O=S(=O)(N/N=C/c1ccc(N2CCOCC2)cc1)c1ccccc1 is higher in “hERG current change (%, negative = inhibition) at 10uM” value: -37.9% for the first, -14.8% for the second.

First: CC[n+]1c(/C=C(\C)SC)sc2ccccc21.COS(=O)(=O)[O-]
Second: CCC(=O)c1ccc(O)c(CC=C(C)C)c1
The “hERG current change (%, negative = inhibition) at 10uM” value of the first is higher: 3.25% for the first, -4.05% for the second.

Going from N#CC(c1cccnc1)N1CCOCC1 (centres unmarked) to Cc1cc(C)cc(NC(=O)N2CCC(NC(=O)c3ccco3)CC2)c1, the “hERG current change (%, negative = inhibition) at 10uM” value falls from 14.5% to 4.34%.

Going from O=C(CNc1cccc([N+](=O)[O-])c1)N/N=C/c1ccc(F)cc1 to NC(=O)c1cc([N+](=O)[O-])ccc1NCc1cnccn1, the “hERG current change (%, negative = inhibition) at 10uM” value falls from 5.79% to -12.9%.

First: CCn1cnc2sc(-c3ccccc3)cc2c1=O
Second: CN=Cc1nc(-c2ccccc2)oc1O
The “hERG current change (%, negative = inhibition) at 10uM” value of the first is lower: -0.663% for the first, 14.4% for the second.

Going from CC(=O)c1cccc(NC(=O)CO/N=C2/CCCc3nonc32)c1 to O=C(CSc1nnc(-c2ccccn2)o1)Nc1ccccc1, the “hERG current change (%, negative = inhibition) at 10uM” value falls from -0.684% to -8.45%.

Compared with CC(C)(C)c1ccc(C(=O)NCc2nnc(SCC(=O)N3CCCc4ccccc43)n2-c2ccccc2)cc1, Cc1ccc(-n2c(SCC(=O)O)nc3c(sc(=S)n3-c3ccc(C)c(C)c3)c2=O)cc1 is higher in “hERG current change (%, negative = inhibition) at 10uM” value: -4.65% for the first, 14% for the second.

Compared with CCCc1nc2ccc(Br)cc2c(=O)n1-c1ccc([N+](=O)[O-])c(C(F)(F)F)c1, Cc1ccc2c(c1)C1CN(C)CCC1N2S(=O)(=O)c1cc(C(F)(F)F)ccc1Cl (centres unmarked) is lower in “hERG current change (%, negative = inhibition) at 10uM” value: -0.855% for the first, -27.6% for the second.

Going from Cc1nc(CSc2nnc(N)s2)cs1 to CC1(C)CC(=O)c2c(Cc3ccccc3)n[nH]c2C1, the “hERG current change (%, negative = inhibition) at 10uM” value falls from 13.7% to -1.48%.

Going from CC1CCCC(NC(=O)c2n[nH]c(=O)c3ccccc23)C1C (centres unmarked) to Cc1cccc(NC(=O)NC(C)CCc2ccccc2)c1 (centres unmarked), the “hERG current change (%, negative = inhibition) at 10uM” value falls from 0.344% to -12.5%.

In the case of COCCNC(=S)NCc1cccs1, the “hERG current change (%, negative = inhibition) at 10uM” value is reported as 21%.

Reference: PMC4336329 (PLoS ONE, 2015)
